{
  "source": "the supplement of paper PMC8728848",
  "binders": {"B1": {"name": "StcE (Escherichia coli), O82882.2 (protein)", "chain": "ADNNSAIYFNTSQPINDLQGSLAAEVKFAQSQILPAHPKEGDSQPHLTSLRKSLLLVRPVKADDKTPVQVEARDDNNKILGTLTLYPPSSLPDTIYHLDGVPEGGIDFTPHNGTKKIINTVAEVNKLSDASGSSIHSHLTNNALVEIHTANGRWVRDIYLPQGPDLEGKMVRFVSSAGYSSTVFYGDRKVTLSVGNTLLFKYVNGQWFRSGELENNRITYAQHIWSAELPAHWIVPGLNLVIKQGNLSGRLNDIKIGAPGELLLHTIDIGMLTTPRDRFDFAKDKEAHREYFQTIPVSRMIVNNYAPLHLKEVMLPTGELLTDMDPGNGGWHSGTMRQRIGKELVSHGIDNANYGLNSTAGLGENSHPYVVAQLAAHNSRGNYANGIQVHGGSGGGGIVTLDSTLGNEFSHEVGHNYGLGHYVDGFKGSVHRSAENNNSTWGWDGDKKRFIPNFYPSQTNEKSCLNNQCQEPFDGHKFGFDAMAGGSPFSAANRFTMYTPNSSAIIQRFFENKAVFDSRSSTGFSKWNADTQEMEPYEHTIDRAEQITASVNELSESKMAELMAEYAVVKVHMWNGNWTRNIYIPTASADNRGSILTINHEAGYNSYLFINGDEKVVSQGYKKSFVSDGQFWKERDVVDTREARKPEQFGVPVTTLVGYYDPEGTLSSYIYPAMYGAYGFTYSDDSQNLSDNDCQLQVDTKEGQLRFRLANHRANNTVMNKFHINVPTESQPTQATLVCNNKILDTKSLTPAPEGLTYTVNGQALPAKENEGCIVSVNSGKRYCLPVGQRSGYSLPDWIVGQEVYVDSGAKAKVLLSDWDNLSYNRIGEFVGNVNPADMKKVKAWNGQYLDFSKPRSMRVVYK"}},
  "assay_in_all_cases": "glycan array binding signal (z-score within array); higher = stronger binding",
  "conditions_in_all_cases": "glycan notation: IUPAC condensed, linker removed",
  "key": {"[1]": {"biological_target": "Man(a1-2)Man(a1-2)Man(a1-3)Man", "method_in_brief": "(§1)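 Glycan array binding is given as a within-array Z-score, which can be read as non-binding when negative. The arrays, 3228 of them, came from the Consortium for Functional Glycomics database and were retained only where the protein sequence was available. Z-scores were averaged across arrays of the same protein sequence at different concentrations or buffers and across linkers.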"}, "[2]": {"biological_target": "Man(a1-2)Man(a1-2)Man(a1-6)[Man(a1-3)]Man", "method_in_brief": "as §1"}, "Man(a1-2)Man(a1-3)Man": {"biological_target": "Man(a1-2)Man(a1-3)Man", "method_in_brief": "as §1"}, "[3]": {"biological_target": "Man(a1-2)Man(a1-3)[Man(a1-2)Man(a1-6)]Man", "method_in_brief": "as §1"}, "[4]": {"biological_target": "Man(a1-2)Man(a1-3)[Man(a1-2)Man(a1-6)]Man(a1-6)[Man(a1-2)Man(a1-2)Man(a1-3)]Man", "method_in_brief": "as §1"}, "[5]": {"biological_target": "Man(a1-2)Man(a1-3)[Man(a1-2)Man(a1-6)]Man(a1-6)[Man(a1-2)Man(a1-2)Man(a1-3)]Man(b1-4)GlcNAc(b1-4)GlcNAc", "method_in_brief": "as §1"}, "[6]": {"biological_target": "Man(a1-2)Man(a1-3)[Man(a1-2)Man(a1-6)]Man(a1-6)[Man(a1-3)[Man(a1-6)]Man(a1-6)]Man(b1-4)GlcNAc(b1-4)GlcNAc", "method_in_brief": "as §1"}, "[7]": {"biological_target": "Man(a1-2)Man(a1-3)[Man(a1-6)]Man(a1-6)[Man(a1-2)Man(a1-3)]Man(b1-4)GlcNAc(b1-4)GlcNAc", "method_in_brief": "as §1"}, "[8]": {"biological_target": "Man(a1-2)Man(a1-6)[Man(a1-3)]Man(a1-6)[Man(a1-2)Man(a1-2)Man(a1-3)]Man", "method_in_brief": "as §1"}, "[9]": {"biological_target": "Man(a1-2)Man(a1-6)[Man(a1-3)]Man(a1-6)[Man(a1-2)Man(a1-2)Man(a1-3)]Man(b1-4)GlcNAc(b1-4)GlcNAc", "method_in_brief": "as §1"}, "Man(a1-3)[Man(a1-6)]Man": {"biological_target": "Man(a1-3)[Man(a1-6)]Man", "method_in_brief": "as §1"}, "[10]": {"biological_target": "Man(a1-3)[Man(a1-6)]Man(a1-6)[Man(a1-2)Man(a1-3)]Man(b1-4)GlcNAc(b1-4)GlcNAc", "method_in_brief": "as §1"}, "[11]": {"biological_target": "Man(a1-3)[Man(a1-6)]Man(a1-6)[Man(a1-3)]Man", "method_in_brief": "as §1"}, "[12]": {"biological_target": "Man(a1-3)[Man(a1-6)]Man(a1-6)[Man(a1-3)]Man(b1-4)GlcNAc(b1-4)GlcNAc", "method_in_brief": "as §1"}, "[13]": {"biological_target": "Man(a1-3)[Man(a1-6)]Man(b1-4)GlcNAc(b1-4)GlcNAc", "method_in_brief": "as §1"}, "[14]": {"biological_target": "Man(a1-3)[Man(a1-6)]Man(b1-4)GlcNAc(b1-4)[Fuc(a1-6)]GlcNAc", "method_in_brief": "as §1"}, "Man(a1-6)Man": {"biological_target": "Man(a1-6)Man", "method_in_brief": "as §1"}, "Man(b1-4)GlcNAc": {"biological_target": "Man(b1-4)GlcNAc", "method_in_brief": "as §1"}, "Neu5Ac(a2-3)Gal": {"biological_target": "Neu5Ac(a2-3)Gal", "method_in_brief": "as §1"}, "[15]": {"biological_target": "Neu5Ac(a2-3)Gal(b1-3)GalNAc", "method_in_brief": "as §1"}, "[16]": {"biological_target": "Neu5Ac(a2-3)Gal(b1-3)GalNAc(b1-3)Gal(a1-4)Gal(b1-4)Glc", "method_in_brief": "as §1"}, "[17]": {"biological_target": "Neu5Ac(a2-3)Gal(b1-3)GalNAc(b1-4)[Neu5Ac(a2-3)]Gal(b1-4)Glc", "method_in_brief": "as §1"}, "[18]": {"biological_target": "Neu5Ac(a2-3)Gal(b1-3)GalNAc(b1-4)[Neu5Ac(a2-8)Neu5Ac(a2-3)]Gal(b1-4)Glc", "method_in_brief": "as §1"}, "[19]": {"biological_target": "Neu5Ac(a2-3)Gal(b1-3)GalNAc6S", "method_in_brief": "as §1"}, "[20]": {"biological_target": "Neu5Ac(a2-3)Gal(b1-3)GlcNAc", "method_in_brief": "as §1"}, "[21]": {"biological_target": "Neu5Ac(a2-3)Gal(b1-3)GlcNAc(b1-2)Man(a1-3)[GlcNAc(b1-4)][Neu5Ac(a2-3)Gal(b1-3)GlcNAc(b1-2)Man(a1-6)]Man(b1-4)GlcNAc(b1-4)GlcNAc", "method_in_brief": "as §1"}, "[22]": {"biological_target": "Neu5Ac(a2-3)Gal(b1-3)GlcNAc(b1-3)Gal(b1-3)GlcNAc", "method_in_brief": "as §1"}, "[23]": {"biological_target": "Neu5Ac(a2-3)Gal(b1-3)GlcNAc(b1-3)Gal(b1-4)GlcNAc", "method_in_brief": "as §1"}, "[24]": {"biological_target": "Neu5Ac(a2-3)Gal(b1-3)GlcNAc(b1-3)GalNAc", "method_in_brief": "as §1"}, "[25]": {"biological_target": "Neu5Ac(a2-3)Gal(b1-3)GlcNAc(b1-6)GalNAc", "method_in_brief": "as §1"}},
  "note": "Some of the results follow.",
  "data": [
    {"binder": "B1", "values": [
      {"measurement": "glycan array binding signal (z-score)", "setting": "[1]", "result": -0.442},
      {"measurement": "glycan array binding signal (z-score)", "setting": "[2]", "result": 0.186},
      {"measurement": "glycan array binding signal (z-score)", "setting": "Man(a1-2)Man(a1-3)Man", "result": -0.346},
      {"measurement": "glycan array binding signal (z-score)", "setting": "[3]", "result": 0.173},
      {"measurement": "glycan array binding signal (z-score)", "setting": "[4]", "result": -0.151},
      {"measurement": "glycan array binding signal (z-score)", "setting": "[5]", "result": -0.485},
      {"measurement": "glycan array binding signal (z-score)", "setting": "[6]", "result": 0.227},
      {"measurement": "glycan array binding signal (z-score)", "setting": "[7]", "result": -0.065},
      {"measurement": "glycan array binding signal (z-score)", "setting": "[8]", "result": -0.148},
      {"measurement": "glycan array binding signal (z-score)", "setting": "[9]", "result": -0.091},
      {"measurement": "glycan array binding signal (z-score)", "setting": "Man(a1-3)[Man(a1-6)]Man", "result": -0.261},
      {"measurement": "glycan array binding signal (z-score)", "setting": "[10]", "result": -0.153},
      {"measurement": "glycan array binding signal (z-score)", "setting": "[11]", "result": -0.115},
      {"measurement": "glycan array binding signal (z-score)", "setting": "[12]", "result": -0.198},
      {"measurement": "glycan array binding signal (z-score)", "setting": "[13]", "result": -0.151},
      {"measurement": "glycan array binding signal (z-score)", "setting": "[14]", "result": -0.049},
      {"measurement": "glycan array binding signal (z-score)", "setting": "Man(a1-6)Man", "result": -0.154},
      {"measurement": "glycan array binding signal (z-score)", "setting": "Man(b1-4)GlcNAc", "result": -0.124},
      {"measurement": "glycan array binding signal (z-score)", "setting": "Neu5Ac(a2-3)Gal", "result": -0.19},
      {"measurement": "glycan array binding signal (z-score)", "setting": "[15]", "result": -0.161},
      {"measurement": "glycan array binding signal (z-score)", "setting": "[16]", "result": -0.081},
      {"measurement": "glycan array binding signal (z-score)", "setting": "[17]", "result": -0.173},
      {"measurement": "glycan array binding signal (z-score)", "setting": "[18]", "result": -0.118},
      {"measurement": "glycan array binding signal (z-score)", "setting": "[19]", "result": 0.499},
      {"measurement": "glycan array binding signal (z-score)", "setting": "[20]", "result": -0.187},
      {"measurement": "glycan array binding signal (z-score)", "setting": "[21]", "result": -0.142},
      {"measurement": "glycan array binding signal (z-score)", "setting": "[22]", "result": -0.157},
      {"measurement": "glycan array binding signal (z-score)", "setting": "[23]", "result": -0.157},
      {"measurement": "glycan array binding signal (z-score)", "setting": "[24]", "result": -0.155},
      {"measurement": "glycan array binding signal (z-score)", "setting": "[25]", "result": -0.155}
    ]}
  ]
}
